For 56 variants, self-cleavage results are on record in the RNAGym collection of RNA variant scans (doi:10.7554/elife.90254).

B1: LINE1-mini (parent)
chain: GGCAGAGCUCAACACAGCGUGGCAAAGUGGCUGUGGCUAGACUGCC

The source gives no read counts; variants with many changes may rest on few reads.

The variants in this data set derive from B1. The data set is described as follows: self-cleavage, relative activity (ratio to wild type); higher = more cleavage; in vitro, sequencing; the parent is a self-cleaving ribozyme.
Regarding GGCAGAGCCCAACACAGCAUGGCAAAGUGGCUGUGGCUAGACUUCC, the self-cleavage was 0.
For the variant GGCAGAGCCCAACACAGCGUAGCAUAGUGGCUGUGGCUAGACUGCC, the self-cleavage is 0.01.
Take GGCAGAGCCCAACACAGCGUGGCAAAGUGGCGGCGGCUAGACCGCC: the self-cleavage amounted to 0.
For GGCAGAGCGCAACUCAGCGUAGCACAGUGGUUGUGGCUAGACUGCC, the self-cleavage turned out to be 0.01.
In the case of GGCAGAGCCCAACACAGCGUGGCAAAGUAGCUGUGGCUUGACUGCC it was 0.09.
Regarding GGCAGAGCCCAACACAGCUUGGGAAAGUGACUGUGGCUAGACUGCC, the self-cleavage is 0.02.
For GGCAGAGCCCAACACAGCGGGGCAAAGUGGCGAUGGCUAGACUGCC, the self-cleavage came to 0.01.
In the case of GGCAGAGCGCCACAGAGCGUGGCAAACUGGCUGUGGCUAGACUGCU, the self-cleavage came out at 0.02.
GGCAGAGCCCAACACAGUGAGGCAAACUGGCUGUGGCUAGACUGCC: the self-cleavage is 0.01.
With GGCAGAGCGCUACACAGCGUGGCAAAGGGCCUGUGGCUAGACUGCC the figure was 0.01.
As for GGCAGAGCCCAACACAGCGUGGCAAAGUGGUUGUAGCUAGACUGCC, the self-cleavage came to 0.1.
GGCAGAGCCCAACACAGCGUGACAAAUUGGCUGUGGCUAGACUUCC: the self-cleavage amounted to 0.03.
On to GGCAGAGCGGAACACAGCGUGUCAAAGUGGCUGAGGCUACACUGCC, for which the self-cleavage amounted to 0.
With GGCAGAGCGCAAAAUAGCGUGGCAAAAUGGGUGUGGCCAGACUGCA the figure was 0.02; with GGCAGAGCCCAACACAGCGUGGCAAAGUGGCUGGGGUUAGACUGCC, 0.02.
With GGCAGAGCCCAACACAGCGUGGGAAAGUGGGUCUGGGGAGACUGCA, the self-cleavage was found to be 0.
For the variant GGCAGAGCGCAACGCAGCGUGGGAAAGUGGCUGUGGCUAGACUGCC, the self-cleavage amounted to 0.06.
As for GGCAGAGCGCAACACUGCGUGGGAAAUUGGCUGUGGCUAGCCUGCC, the self-cleavage was 0.05.
As to GGCAGAGCCCAACACAGCGUGGCAAAGUGGAUGUGGCUAGACUGGC, the self-cleavage came to 0.02.
Turning to GGCAGAGCCCAACACAGCGUGGAAAAGUGGCUGUGCCUAGACUGCC, the self-cleavage turned out to be 0.02.
As to GGCAGAGCCCAACACAGCGUAGCAAAGUGGCUGUGACUAAACUGCC, the self-cleavage was determined as 0.51.
Consider GGCAGAGCCCAACACAGCGUGUCAAAGUGGCUGUGGCUAGGCUACC, for which the self-cleavage was 0.02.
In the case of GGCAGAGCCCAACACAGCGAGGCAAAGUGGUUGUGUCCAGACAGCC it was 0; in that of GGCAGAGCGCAACGCAGCGUGGCAAAGUGUCUGUGGCUGGACUGCC, 0.1.
Take GGCAGAGCGGGACACAACGUGGCAAAGUGGCAAUGGCUAGACUGGC: the self-cleavage turned out to be 0.01.
On to GGCAGAGCCCAACACAUCGAGCCAAAGUGGCUAUGGCUAGACUGCC, for which the self-cleavage was determined as 0.
Take GGCAGAGCGCACCACAGCGGGGCAAAGUGGCUGUGGCUAGACUGCC: the self-cleavage amounted to 0.01.
On to GGCAGAGCGAACUACAGCGUCGCAAAGUGGCUGUGGCUAGACUGCC, for which the self-cleavage was determined as 0.03.
As to GGCAGAGCCCAACACAGCGUUUCAAAGUGGCUGUGGCUAGACUGGC, the self-cleavage stood at 0.01.
Take GGCAGAGCCCAACACAGCGUUGCAAACUGGCUGUGGCUAGACUUCA: the self-cleavage came to 0.03.
In the case of GGCAGAGCGCAAAACAGCGUGGCUAAGUGUCUGUGGCUAGACUGCC it was 0.03.
For the variant GGCAGAGCGCAACACCGCGUGGUAAAGUGGCUGUGGCUAGGCUGCC, the self-cleavage turned out to be 0.02.
In the case of GGCAGAGCCCAACACAGCGUGGCAAAGUGGCUGUGGCUACACUGCG it was 0.01.
For GGCAGAGCGCAACGCAGUGUGGCAAAGUUGCUGUGGCUAGACUGCC, the self-cleavage was 0.02.
In the case of GGCAGAGCCCAACACAGCUUGGAAAAGUGGCUGUGGCUAGAAUGCC it was 0.06; in that of GGCAGAGCGGAACACAGCGUGGCAAAGUGGCUGUGGCCAGACUGCC, 0.03; in that of GGCAGAGCCCAACACAACGAGGCAAAGUGGCAGUGGCUAGACUGCA, 0.
In the case of GGCAGAGCCCAACAUAGAGUGGCAAAGUGGCUGUGUCUACACUGCC it was 0.01; in that of GGCAGAGCGCACCACAGCGUGGCAUAGUGUCUGUGGCUAGACUGCC, 0.01.
For the variant GGCAGAGCGCAACUCAGCGUGGCAAACAGGCUGUCGCUAGACUGCC, the self-cleavage is 0.01.
With GGCAGAGCCCAACACAGCGUGGCAAAGUGGAUGUGUCUAGACUGCC, the self-cleavage was found to be 0.02.
Take GGCAGAGCCCAACACAAAGUGGCAAAGUCGCUGUGGGUAGACUGCC: the self-cleavage came out at 0.
Take GGCAGAGCGCAACCUAGCGUGGCAAAGAGGCUGUGGCUAGCCUGCC: the self-cleavage was 0.04.
As for GGCAGAGCGCUACAAAGCGUGGCAAAGUGGCUGUGGCUAGACUGCC, the self-cleavage amounted to 0.01.
Turning to GGCAGAGCGCAACCCAGCCUGGCAAAGUGGCUUUGGCUAGACUGCC, the self-cleavage amounted to 0.03.
For GGCAGAGCCCAACACACCGUGGCAAAGUGGCUGUGGCUAGACAGCC, the self-cleavage is 0.02.
In the case of GGCAGAGCGUAACACAGCGUGUCAAAGUGGCUGUGGUUAGACUGCC it was 0; in that of GGCAGAGCGCAUCACCGCGUGACAAAGUGGCAGUGGCUAGACUGUC, 0.01; in that of GGCAGAGCCCAACACAGCGUUCCACAGUGGCUUUGGCUAGACUGCC, 0.02.
With GGCAGAGCGCGACACAUCGUCGCAAAGUUUCUGUGGCUAGACUGCA the figure was 0.01.
With GGCAGAGCCCAACACAGCGUGGCAAAAUGGCUGUGGCUAGAAUGCC, the self-cleavage came out at 0.09.
On to GGCAGAGCCCAACAGAGUGUGGCAAAGUGGCUGUGACUAGACUGCC, for which the self-cleavage is 0.03.
In the case of GGCAGAGCGCUACACAGCGUGGCAAAGUGGCUGUGGCUAGACAGCA it was 0; in that of GGCAGAGCGCAUUACAGCGUGGCAAAGUGGCUGUGGCUAGACUGCC, 0.08.
Turning to GGCAGAGCCCAACACAGCUUGGUAAAGUGGCUGUGGCUUGACUGGC, the self-cleavage stood at 0.01.
For GGCAGAGCGCAACCCAGCGUUGCAAAGUGGCUGUGGCUAGACUGCC, the self-cleavage was determined as 0.03.
